# In the supplement of paper PMC8728848:
# The other results are listed elsewhere or left out.
# B1: Fm1D (Escherichia coli) (protein)
# chain: FSCNVDGGSSIGAGTTSVYVNLDPVIQPGQNLVVDLSQHISCWNDYGGWYDTDHINLVQGSAFAGSLQSYKGSLYWNNVTYPFPLTTNTNVLDIGDKTPMPLPLKLYITPVGAAGGVVIKAGEVIARIHMYKIATLGSGNPRNFTWNIISNNSVVMPTHHHHHH
# Assays:
# Assay in all cases: glycan array binding signal (z-score within array); higher = stronger binding
# Conditions in all cases: glycan notation: IUPAC condensed, linker removed
# [1] = biological target: Gal(b1-4)GlcNAc(b1-3)Gal(b1-4)GlcNAc(b1-2)[Gal(b1-4)GlcNAc(b1-3)Gal(b1-4)GlcNAc(b1-6)]Man(a1-6)[Gal(b1-4)GlcNAc(b1-3)Gal(b1-4)GlcNAc(b1-2)Man(a1-3)]Man(b1-4)GlcNAc(b1-4)[Fuc(a1-6)]GlcNAc
# Summary of the method: (§1)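 Glycan array binding is given as a within-array Z-score, which can be read as non-binding when negative. The arrays, 3228 of them, came from the Consortium for Functional Glycomics database and were retained only where the protein sequence was available. Z-scores were averaged across arrays of the same protein sequence at different concentrations or buffers and across linkers.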
# [2] = biological target: Gal(b1-4)GlcNAc(b1-3)Gal(b1-4)GlcNAc(b1-3)Gal(b1-4)GlcNAc
# Summary of the method: as §1
# [3] = biological target: Gal(b1-4)GlcNAc(b1-3)Gal(b1-4)GlcNAc(b1-3)Gal(b1-4)GlcNAc(b1-2)Man(a1-3)[Gal(b1-4)GlcNAc(b1-3)Gal(b1-4)GlcNAc(b1-3)Gal(b1-4)GlcNAc(b1-2)Man(a1-6)]Man(b1-4)GlcNAc(b1-4)GlcNAc
# Summary of the method: as §1
# [4] = biological target: Gal(b1-4)GlcNAc(b1-3)Gal(b1-4)GlcNAc(b1-3)Gal(b1-4)GlcNAc(b1-2)Man(a1-3)[Gal(b1-4)GlcNAc(b1-3)Gal(b1-4)GlcNAc(b1-3)Gal(b1-4)GlcNAc(b1-2)Man(a1-6)]Man(b1-4)GlcNAc(b1-4)[Fuc(a1-6)]GlcNAc
# Summary of the method: as §1
# [5] = biological target: Gal(b1-4)GlcNAc(b1-3)Gal(b1-4)GlcNAc(b1-3)Gal(b1-4)GlcNAc(b1-2)[Gal(b1-4)GlcNAc(b1-3)Gal(b1-4)GlcNAc(b1-3)Gal(b1-4)GlcNAc(b1-6)]Man(a1-6)[Gal(b1-4)GlcNAc(b1-3)Gal(b1-4)GlcNAc(b1-3)Gal(b1-4)GlcNAc(b1-2)Man(a1-3)]Man(b1-4)GlcNAc(b1-4)[Fuc(a1-6)]GlcNAc
# Summary of the method: as §1
# [6] = biological target: Gal(b1-4)GlcNAc(b1-3)Gal(b1-4)GlcNAc(b1-3)Gal(b1-4)GlcNAc(b1-3)Gal(b1-4)GlcNAc(b1-2)Man(a1-3)[Gal(b1-4)GlcNAc(b1-3)Gal(b1-4)GlcNAc(b1-3)Gal(b1-4)GlcNAc(b1-3)Gal(b1-4)GlcNAc(b1-2)Man(a1-6)]Man(b1-4)GlcNAc(b1-4)GlcNAc
# Summary of the method: as §1
# [7] = biological target: Gal(b1-4)GlcNAc(b1-3)Gal(b1-4)GlcNAc(b1-3)Gal(b1-4)GlcNAc(b1-3)Gal(b1-4)GlcNAc(b1-2)Man(a1-3)[Gal(b1-4)GlcNAc(b1-3)Gal(b1-4)GlcNAc(b1-3)Gal(b1-4)GlcNAc(b1-3)Gal(b1-4)GlcNAc(b1-2)Man(a1-6)]Man(b1-4)GlcNAc(b1-4)[Fuc(a1-6)]GlcNAc
# Summary of the method: as §1
# [8] = biological target: Gal(b1-4)GlcNAc(b1-3)Gal(b1-4)GlcNAc(b1-3)Gal(b1-4)GlcNAc(b1-3)Gal(b1-4)GlcNAc(b1-2)[Gal(b1-4)GlcNAc(b1-3)Gal(b1-4)GlcNAc(b1-3)Gal(b1-4)GlcNAc(b1-3)Gal(b1-4)GlcNAc(b1-6)]Man(a1-6)[Gal(b1-4)GlcNAc(b1-3)Gal(b1-4)GlcNAc(b1-3)Gal(b1-4)GlcNAc(b1-3)Gal(b1-4)GlcNAc(b1-2)Man(a1-3)]Man(b1-4)GlcNAc(b1-4)[Fuc(a1-6)]GlcNAc
# Summary of the method: as §1
# [9] = biological target: Gal(b1-4)GlcNAc(b1-3)Gal(b1-4)GlcNAc(b1-3)Gal(b1-4)GlcNAc(b1-3)Gal(b1-4)GlcNAc(b1-3)Gal(b1-4)GlcNAc(b1-2)Man(a1-3)[Gal(b1-4)GlcNAc(b1-3)Gal(b1-4)GlcNAc(b1-3)Gal(b1-4)GlcNAc(b1-3)Gal(b1-4)GlcNAc(b1-3)Gal(b1-4)GlcNAc(b1-2)Man(a1-6)]Man(b1-4)GlcNAc(b1-4)GlcNAc
# Summary of the method: as §1
# [10] = biological target: Gal(b1-4)GlcNAc(b1-3)Gal(b1-4)GlcNAc(b1-3)Gal(b1-4)GlcNAc(b1-3)Gal(b1-4)GlcNAc(b1-3)Gal(b1-4)GlcNAc(b1-2)Man(a1-3)[Gal(b1-4)GlcNAc(b1-3)Gal(b1-4)GlcNAc(b1-3)Gal(b1-4)GlcNAc(b1-3)Gal(b1-4)GlcNAc(b1-3)Gal(b1-4)GlcNAc(b1-2)Man(a1-6)]Man(b1-4)GlcNAc(b1-4)[Fuc(a1-6)]GlcNAc
# Summary of the method: as §1
# [11] = biological target: Gal(b1-4)GlcNAc(b1-3)Gal(b1-4)GlcNAc(b1-3)Gal(b1-4)GlcNAc(b1-3)Gal(b1-4)GlcNAc(b1-3)Gal(b1-4)GlcNAc(b1-2)[Gal(b1-4)GlcNAc(b1-3)Gal(b1-4)GlcNAc(b1-3)Gal(b1-4)GlcNAc(b1-3)Gal(b1-4)GlcNAc(b1-3)Gal(b1-4)GlcNAc(b1-6)]Man(a1-6)[Gal(b1-4)GlcNAc(b1-3)Gal(b1-4)GlcNAc(b1-3)Gal(b1-4)GlcNAc(b1-3)Gal(b1-4)GlcNAc(b1-3)Gal(b1-4)GlcNAc(b1-2)Man(a1-3)]Man(b1-4)GlcNAc(b1-4)[Fuc(a1-6)]GlcNAc
# Summary of the method: as §1
# [12] = biological target: Gal(b1-4)GlcNAc(b1-3)Gal(b1-4)GlcNAc(b1-3)Gal(b1-4)GlcNAc(b1-3)Gal(b1-4)GlcNAc(b1-3)Gal(b1-4)GlcNAc(b1-3)Gal(b1-4)GlcNAc(b1-2)Man(a1-3)[Gal(b1-4)GlcNAc(b1-3)Gal(b1-4)GlcNAc(b1-3)Gal(b1-4)GlcNAc(b1-3)Gal(b1-4)GlcNAc(b1-3)Gal(b1-4)GlcNAc(b1-3)Gal(b1-4)GlcNAc(b1-2)Man(a1-6)]Man(b1-4)GlcNAc(b1-4)GlcNAc
# Summary of the method: as §1
# [13] = biological target: Gal(b1-4)GlcNAc(b1-3)Gal(b1-4)GlcNAc(b1-3)GalNAc
# Summary of the method: as §1
# [14] = biological target: Gal(b1-4)GlcNAc(b1-3)Gal(b1-4)GlcNAc(b1-3)[Gal(b1-4)GlcNAc(b1-3)Gal(b1-4)GlcNAc(b1-6)]GalNAc
# Summary of the method: as §1
# [15] = biological target: Gal(b1-4)GlcNAc(b1-3)Gal(b1-4)GlcNAc(b1-6)[Gal(b1-3)]GalNAc
# Summary of the method: as §1
# [16] = biological target: Gal(b1-4)GlcNAc(b1-3)Gal(b1-4)[Fuc(a1-3)]GlcNAc(b1-3)Gal(b1-4)[Fuc(a1-3)]GlcNAc
# Summary of the method: as §1
# [17] = biological target: Gal(b1-4)GlcNAc(b1-3)GalNAc
# Summary of the method: as §1
# [18] = biological target: Gal(b1-4)GlcNAc(b1-3)[Fuc(a1-3)GlcNAc(b1-6)]Gal(b1-4)Glc
# Summary of the method: as §1
# [19] = biological target: Gal(b1-4)GlcNAc(b1-3)[Gal(b1-4)GlcNAc(b1-6)]Gal(b1-4)GlcNAc
# Summary of the method: as §1
# [20] = biological target: Gal(b1-4)GlcNAc(b1-3)[GlcNAc(b1-6)]Gal(b1-4)GlcNAc
# Summary of the method: as §1
# [21] = biological target: Gal(b1-4)GlcNAc(b1-6)Gal(b1-4)GlcNAc
# Summary of the method: as §1
# [22] = biological target: Gal(b1-4)GlcNAc(b1-6)GalNAc
# Summary of the method: as §1
binder,measurement,setting,value
B1,glycan array binding signal (z-score),[1],-0.14
same,glycan array binding signal (z-score),[2],-0.143
same,glycan array binding signal (z-score),[3],-0.136
same,glycan array binding signal (z-score),[4],-0.14
same,glycan array binding signal (z-score),[5],-0.133
same,glycan array binding signal (z-score),[6],-0.142
same,glycan array binding signal (z-score),[7],-0.131
same,glycan array binding signal (z-score),[8],-0.137
same,glycan array binding signal (z-score),[9],-0.142
same,glycan array binding signal (z-score),[10],-0.14
same,glycan array binding signal (z-score),[11],-0.132
same,glycan array binding signal (z-score),[12],-0.138
same,glycan array binding signal (z-score),[13],-0.147
same,glycan array binding signal (z-score),[14],-0.146
same,glycan array binding signal (z-score),[15],3.82
same,glycan array binding signal (z-score),[16],-0.139
same,glycan array binding signal (z-score),[17],-0.144
same,glycan array binding signal (z-score),[18],-0.149
same,glycan array binding signal (z-score),[19],-0.145
same,glycan array binding signal (z-score),[20],-0.141
same,glycan array binding signal (z-score),[21],-0.144
same,glycan array binding signal (z-score),[22],-0.137
